# The data scatter; read single values as rough.
# Assay: amyloid nucleation score relative to library mode (yeast Sup35 reporter selection) (log enrichment difference); higher = more amyloid nucleation; sequences are the first 22 residues of the Bri2 peptide extended by up to 12 random residues
# Conditions: random library (experiment): 1;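 active = nucleation score significantly above 0 at FDR 0.05; inactive = not significantly above 0 or absent from output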
# 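Further: [psi-pin-] Saccharomyces cerevisiae expressing SupN fusions, induced by 100 µM Cu2SO4, selected 7 d at 30 °C without adenine and uracil, scored by deep sequencing of output versus input.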
row,Sequence,amyloid nucleation score
1,EASNCFAIRHFENKFAVETLICGNGETLQWLGLS,inactive
2,EASNCFAIRHFENKFAVETLICGNGMQLVLRQSD,7.13
3,EASNCFAIRHFENKFAVETLICGNHRGLGQVTWL,3.65
4,EASNCFAIRHFENKFAVETLICGNHYAHGRADVR,inactive
5,EASNCFAIRHFENKFAVETLICGNIQIIVPLRVA,5.84
6,EASNCFAIRHFENKFAVETLICGNKVVRKLTRLY,inactive
7,EASNCFAIRHFENKFAVETLICGNLPHVPSSVLK,inactive
8,EASNCFAIRHFENKFAVETLICGNQGRRAMSTSV,inactive
9,EASNCFAIRHFENKFAVETLICGNRSSQTGTGSR,inactive
10,EASNCFAIRHFENKFAVETLICGNSQYLLSYLVM,inactive
11,EASNCFAIRHFENKFAVETLICGNSWLIVYRFAG,inactive
12,EASNCFAIRHFENKFAVETLICGNTFVVVCFCLK,2.08
13,EASNCFAIRHFENKFAVETLICGNTVFDRDVELR,1.18
14,EASNCFAIRHFENKFAVETLICGNWGIGQVLAFY,5.58
15,EASNCFAIRHFENKFAVETLICGNYVV,inactive
16,EASNCFAIRHFENKFAVETLICGP,inactive
17,EASNCFAIRHFENKFAVETLICGPCAGLLPFCGI,6.53
18,EASNCFAIRHFENKFAVETLICGPCEWMPSSREH,3.95
19,EASNCFAIRHFENKFAVETLICGPCGIARCSVRL,0.42
20,EASNCFAIRHFENKFAVETLICGPDATKGKCGGR,inactive

row,Sequence,amyloid nucleation score
1,EASNCFAIRHFENKFAVETLICGPEARSQSSVPQ,inactive
2,EASNCFAIRHFENKFAVETLICGPGESQWRCMTE,inactive
3,EASNCFAIRHFENKFAVETLICGPHRHGCSPLP,inactive
4,EASNCFAIRHFENKFAVETLICGPHVVV,-0.431
5,EASNCFAIRHFENKFAVETLICGPLFHSALPCGR,-0.523
6,EASNCFAIRHFENKFAVETLICGPLLFDSYVIW,inactive
7,EASNCFAIRHFENKFAVETLICGPLNKLFVSWV,inactive
8,EASNCFAIRHFENKFAVETLICGPLRSKARRYNC,inactive
9,EASNCFAIRHFENKFAVETLICGPPR,inactive
10,EASNCFAIRHFENKFAVETLICGPRAWRSHVLRA,-0.28
11,EASNCFAIRHFENKFAVETLICGPRCQMGGMLGI,inactive
12,EASNCFAIRHFENKFAVETLICGPRHLRL,inactive
13,EASNCFAIRHFENKFAVETLICGPRLTVPGGSWW,inactive
14,EASNCFAIRHFENKFAVETLICGPRRPSGAVRCR,inactive
15,EASNCFAIRHFENKFAVETLICGPRTIRLRWPLK,inactive
16,EASNCFAIRHFENKFAVETLICGPSAGSGIEAAS,inactive
17,EASNCFAIRHFENKFAVETLICGPSPSNNVASEG,inactive
18,EASNCFAIRHFENKFAVETLICGPTMMERVTRFR,inactive
19,EASNCFAIRHFENKFAVETLICGPWPERNLIKSA,inactive
20,EASNCFAIRHFENKFAVETLICGQ,0.517

row,Sequence,amyloid nucleation score
1,EASNCFAIRHFENKFAVETLICGQCVCSCRVSER,8.08
2,EASNCFAIRHFENKFAVETLICGQDSSPNSRYSA,inactive
3,EASNCFAIRHFENKFAVETLICGQFVSSP,2.79
4,EASNCFAIRHFENKFAVETLICGQGGGHGSYESL,1.55
5,EASNCFAIRHFENKFAVETLICGQHGEGEARQER,inactive
6,EASNCFAIRHFENKFAVETLICGQLFDRGVTSCA,inactive
7,EASNCFAIRHFENKFAVETLICGQMYSLDLRDQR,inactive
8,EASNCFAIRHFENKFAVETLICGQPELSMSVKVS,inactive
9,EASNCFAIRHFENKFAVETLICGQPGGGRRSQQR,inactive
10,EASNCFAIRHFENKFAVETLICGQRFGMQLCGRG,inactive
11,EASNCFAIRHFENKFAVETLICGQRSCPSHEHLR,inactive
12,EASNCFAIRHFENKFAVETLICGQS,inactive
13,EASNCFAIRHFENKFAVETLICGQTRSLVGAVLR,inactive
14,EASNCFAIRHFENKFAVETLICGQYCVFM,9.2
15,EASNCFAIRHFENKFAVETLICGR,-0.494
16,EASNCFAIRHFENKFAVETLICGRARHRHCCCRE,1.61
17,EASNCFAIRHFENKFAVETLICGRASCSVVSSRL,inactive
18,EASNCFAIRHFENKFAVETLICGRATGLSWWVSV,-0.203
19,EASNCFAIRHFENKFAVETLICGRCNGSGIDARG,inactive

# Same assay, conditions: random library (experiment): 2
row,Sequence,amyloid nucleation score
1,EASNCFAIRHFENKFAVETLICGNGFYTSLCTGG,6.82
2,EASNCFAIRHFENKFAVETLICGNIRVSGTLRGW,4.67
3,EASNCFAIRHFENKFAVETLICGNIYAVRGASVV,4.82
4,EASNCFAIRHFENKFAVETLICGNLELSVMRMVT,inactive
5,EASNCFAIRHFENKFAVETLICGNLKTLCVFTVS,inactive
6,EASNCFAIRHFENKFAVETLICGNLPYEF,inactive
7,EASNCFAIRHFENKFAVETLICGNMKFWMTKSFM,4.7
8,EASNCFAIRHFENKFAVETLICGNRIVNSSMWMK,inactive
9,EASNCFAIRHFENKFAVETLICGNS,inactive
10,EASNCFAIRHFENKFAVETLICGNSDTRNGGDGG,inactive
11,EASNCFAIRHFENKFAVETLICGNSVKDCCCSRR,7.52
12,EASNCFAIRHFENKFAVETLICGNSVLQPLLLMR,inactive
13,EASNCFAIRHFENKFAVETLICGNVVHWLSEGVG,inactive
14,EASNCFAIRHFENKFAVETLICGPAASGVRSGGW,inactive
15,EASNCFAIRHFENKFAVETLICGPE,inactive
16,EASNCFAIRHFENKFAVETLICGPFKNSKNRRVL,inactive
17,EASNCFAIRHFENKFAVETLICGPFVNLRRRAGG,5.33
18,EASNCFAIRHFENKFAVETLICGPGLNESAMPCV,inactive
19,EASNCFAIRHFENKFAVETLICGPK,2.3
20,EASNCFAIRHFENKFAVETLICGPMPTVRFHYIR,inactive
21,EASNCFAIRHFENKFAVETLICGPTAYAKCDVRM,2.25
22,EASNCFAIRHFENKFAVETLICGQEIYG,inactive
23,EASNCFAIRHFENKFAVETLICGQGIWNVWFEGP,7.26
24,EASNCFAIRHFENKFAVETLICGQQRLC,inactive
25,EASNCFAIRHFENKFAVETLICGQSLRHVIIILR,-0.0583
26,EASNCFAIRHFENKFAVETLICGQSSARAVTCIA,inactive
27,EASNCFAIRHFENKFAVETLICGQTGPEPGCEGG,inactive
28,EASNCFAIRHFENKFAVETLICGRCIGMWPNGTG,2.01

# Same assay, conditions: random library (experiment): 3
row,Sequence,amyloid nucleation score
1,EASNCFAIRHFENKFAVETLICGNMLSLEFYGGE,8.56
2,EASNCFAIRHFENKFAVETLICGNPIGSPKWEKG,inactive
3,EASNCFAIRHFENKFAVETLICGNRM,inactive
4,EASNCFAIRHFENKFAVETLICGNRWCQDATSVW,2.59
5,EASNCFAIRHFENKFAVETLICGNSTLRIWGKDR,1.85
6,EASNCFAIRHFENKFAVETLICGNVCFRQYCSNE,8.22
7,EASNCFAIRHFENKFAVETLICGNVCGNRSGGPR,3.21
8,EASNCFAIRHFENKFAVETLICGPAQ,inactive
9,EASNCFAIRHFENKFAVETLICGPARRAAECEVF,-0.553
10,EASNCFAIRHFENKFAVETLICGPCGSYTCPVPE,4.09
11,EASNCFAIRHFENKFAVETLICGPDGMCVQLIAC,inactive
12,EASNCFAIRHFENKFAVETLICGPDTTERRGSGR,inactive
13,EASNCFAIRHFENKFAVETLICGPEQLDLACDGV,-0.638
14,EASNCFAIRHFENKFAVETLICGPGSDWRASQAQ,inactive
15,EASNCFAIRHFENKFAVETLICGPGTHKHSTLSA,inactive
16,EASNCFAIRHFENKFAVETLICGPLRMTGSHWLE,inactive

row,Sequence,amyloid nucleation score
1,EASNCFAIRHFENKFAVETLICGPMVSFEAYGPD,inactive
2,EASNCFAIRHFENKFAVETLICGPSDRFVDYEND,inactive
3,EASNCFAIRHFENKFAVETLICGPSPRAPLACLM,inactive
4,EASNCFAIRHFENKFAVETLICGPSTNGMMTYKQ,inactive
5,EASNCFAIRHFENKFAVETLICGPWESGVVDDGE,inactive
6,EASNCFAIRHFENKFAVETLICGPYL,0
7,EASNCFAIRHFENKFAVETLICGQKGHNLDVWCA,inactive
8,EASNCFAIRHFENKFAVETLICGQL,inactive
9,EASNCFAIRHFENKFAVETLICGQLTFSSWILR,inactive
10,EASNCFAIRHFENKFAVETLICGQVGWDFGRCGM,6.3
11,EASNCFAIRHFENKFAVETLICGQVMAGCSVRVT,5.83
12,EASNCFAIRHFENKFAVETLICGRAQSTKANWVN,inactive
13,EASNCFAIRHFENKFAVETLICGRASELFRSAAR,inactive
14,EASNCFAIRHFENKFAVETLICGRCAMECRPGPE,inactive
15,EASNCFAIRHFENKFAVETLICGRCLCRDVRHAK,7.57

# From the supplement of paper PMC12067230
